This note sets out measurements from paper PMC12136788.

B1: chr3:10015032:10015033:+_ENSMUSG00000027533_ENSMUST00000029046|mus_mus|mus_mus_mus_hu_True|18_38 (ssRNA)
RNA: GGGAGUUCUACAGUCCGACGAUCGUUUUUACCAUCACAAGUGAUGAUACAAUCUGGCUUGGCCAUUGCGCCCAUUUUUCGCAAAGCUAUUCCCACUCCUAGCUCUUUCAUGUAUUCCUCAAAGCCGUUGCUGUCCACCAGGCGCAACAGAGGAUUGAGCAUCA
B2: chr14:76904430:76904431:+_ENSMUSG00000022010_ENSMUST00000022587|mus_mus|mus_mus_mus_hu_True|1_8 (ssRNA)
RNA: GGGAGUUCUACAGUCCGACGAUCUGCAGCCAAAAACACCCUCGUGGAAAAAAAGAGGGAACACCAGCAGCCUUGUAUAAGCUAGAUAAAAUCUUCUGGCUUUCCGCAGCCCAGGGAGAAACAGAAAUGGUGCUGGCUCGAGUGCAACAGAGGAUUGAGCAUCA
B3: chr10:121586235:121586236:+_ENSG00000198825_ENST00000369080|hu_mus|FALSE|FALSE (ssRNA)
RNA: GGGAGUUCUACAGUCCGACGAUCAGGUUGCCGAUGUUCACAUUGGAUUUGGUCUGCUUUACUUUUUGAUUUAGAGAUGAAAAUUUGCUCAUUAAAAAGCUUUUCCCCUGGGCAAGAGAGCCUUGGUUUUGAGAUCUGAUACCACAACAGAGGAUUGAGCAUCA
B4: chr10:7368923:7368924:-_ENSMUSG00000019795_ENSMUST00000163085|mus_hu|FALSE|FALSE (ssRNA)
RNA: GGGAGUUCUACAGUCCGACGAUCCAUGUAUGGGUUACAUUUUGCAUAGUGGGAGCGGUCUGUAGCCAGCAUCACUUCAAAUACUUUAUCUGUCUUGAUGAUUCCAUUUUUGCGGAGAUUGUGGAUUAGCUCCGAGUGGCUGGCCAACAGAGGAUUGAGCAUCA
B5: chr11:69548761:69548762:-_ENSMUSG00000005198_ENSMUST00000058470|mus_hu|FALSE|FALSE (ssRNA)
RNA: GGGAGUUCUACAGUCCGACGAUCAGAUGUCGGUGAGUAGCUGGGAGACGUUGGCGAGUAGCUAGGGGAAGUGGGCGAGUAGCUAGGGGAAGUGGGUGAGUAGCUGGGAGAGGUGGGCGAGUAGCUGGGAGAGGUGGGCGAGUACAACAGAGGAUUGAGCAUCA
B6: chr18:47008509:47008510:-_ENSG00000177576_ENST00000318240|hu_mus|FALSE|FALSE (ssRNA)
RNA: GGGAGUUCUACAGUCCGACGAUCGCUCACACGGACCUUCUAUUUGUUCAUAUCAGUAAAUUGGAAUAAUAGAAAUGAAAGCUACUUUAAUGAAAAAGAAACUCAGGGGUGAGAUCAUUAAAUAUAACUACUGGAAUUUUAAAUCAACAGAGGAUUGAGCAUCA
B7: 63823771_63823891_5435_3pUTR_ENSMUSG00000027823_ENSMUST00000029405|mouse|control|control (ssRNA)
RNA: GGGAGUUCUACAGUCCGACGAUCCAGAAAACCUGAAUCCAGCUCCUGCUCUGCCAAUAGUUAGCAGUUAUGAAUACUUAUCUGUUGUCAAAACAGAAAUAUAUUCUAAUAGCUCUUCCAAAAAUGCAAAGUAAAGUGAAAGUCCAACAGAGGAUUGAGCAUCA
B8: 28789440_28791678_4005_3pUTR_ENSG00000108582_ENST00000225719|human|control|control (ssRNA)
RNA: GGGAGUUCUACAGUCCGACGAUCUGUCUAUUAGACUUGAUUGAGCAGAUGCACCAAAUAAUGCAAGCUGUUAGGAUCAAUGCCGACAUAGUAGCACCUGAUACAGUUACCACAAGCUCCCUUGGCAAACCAAAUAUCCGGUUACAACAGAGGAUUGAGCAUCA
B9: 106417281_106417401_1343_ncRNA_ENSMUSG00000055407_ENSMUST00000127492|mouse|control|control (ssRNA)
RNA: GGGAGUUCUACAGUCCGACGAUCCAUCCAUGCUGGCCCUGCCUUCCUGCGUGUGUCACGCUGAUCUGCACCGGACGCCUUUCCAGCUGCAGGACCACCCUCCUGGGUCUGGGAUUGGGCUGGGGGCAGAGGCUUCUCUUCGUGCAACAGAGGAUUGAGCAUCA
B10: chr2:158287933:158287934:+_ENSMUSG00000027652_ENSMUST00000141497|mus_hu|motif|central (ssRNA)
RNA: GGGAGUUCUACAGUCCGACGAUCAAGAGGUUGUUCCAGCAUUGCCAGGAUGACACUGUUAUCCAAGACAAAGUACCGGAAACGGUGCUUGUUUAUGGUUGGCAGCCUGGAGUAUUUAAUCAAAGUGGUCUCAUUCACAAGACUCAACAGAGGAUUGAGCAUCA
B11: chr2:181041410:181041411:-_ENSMUSG00000027581_ENSMUST00000103045|mus_mus|FALSE|FALSE (ssRNA)
RNA: GGGAGUUCUACAGUCCGACGAUCAGCUGAGGGGUACAGGGGAGCAGAUAGGAGCAGGCACAAAAUUCGCAUCUAGACAGAAUUGAAAACAAAAACAAAACCCGAAAACGUUCUUGUCGCCGCUGGGUCCAAUACUCCUUAGCCCAACAGAGGAUUGAGCAUCA
B12: chr11:87793471:87793472:-_ENSMUSG00000020483_ENSMUST00000020775|mus_mus|mus_mus_mus_hu_False|58_78 (ssRNA)
RNA: GGGAGUUCUACAGUCCGACGAUCUGGACUUGAAAAUAAAAGAAUAAGCUGGAUCCCCCCACCCCUUACAUUGUCAACCCUAUGCGAGAGUUUUGAAGGCGACUCAUGAAAAUCAGCAGCUCAAACGGCAAUGACCACCCCACCCAACAGAGGAUUGAGCAUCA
B13: chr3:152122376:152122377:+_ENSMUSG00000039068_ENSMUST00000106100|mus_mus|FALSE|FALSE (ssRNA)
RNA: GGGAGUUCUACAGUCCGACGAUCAAACAAACAUAUCCACAUCGUUUAUUUCUCACAGUUCUCCCGACAAAUGAACAUUAUUCAAGAACAUACUGUAUACACAGAUAAGAAACAUACAAAAUGUUUUAAAUGAUGCACAACAAACAACAGAGGAUUGAGCAUCA
B14: chr5:128448638:128448639:+_ENSG00000066583_ENST00000173527|hu_mus|hu_hu_hu_mus_False|58_68 (ssRNA)
RNA: GGGAGUUCUACAGUCCGACGAUCGGCACUCGCCUUAAUUAGGUUCUGAAUUUCCUUGAACUUCGGGUGGUCCUUAUCAGCUACCAGCUGUAGGAGGACAGCCUCACUAGUGGUCACGAUGAUCCCAGUGCGGGCAAGACGCUCCAACAGAGGAUUGAGCAUCA

The list shows a part of the results.

For the test, the target named is T1, UNK ZnF1-3 (human, UniProt Q9C0B0 31-174).
T1 sequence: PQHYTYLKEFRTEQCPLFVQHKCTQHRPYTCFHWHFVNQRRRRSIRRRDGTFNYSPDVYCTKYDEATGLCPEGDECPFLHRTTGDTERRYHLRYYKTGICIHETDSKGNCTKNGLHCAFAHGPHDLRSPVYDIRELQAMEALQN
Put plainly: nsRBNS (natural sequence RNA bind-n-seq); RBNS binding buffer (assumed for nsRBNS): 25 mM Tris pH 7.5, 150 mM KCl, 3 mM MgCl2, 0.01% Triton X-100, 500 ug/ml BSA, 20 U/ml SUPERase-In, 4 C; UNK is unkempt and MSI1 is Musashi-1; names of the RNAs are library labels; protein concentration not given here; high values mean tight binding.
With B1, the binding signal was 0.666 enrichment R.

The molecule B2 returned a binding signal of 2.03 enrichment R. The same measure for B3: 0.953 enrichment R; for B4: 0.705 enrichment R.

As to B5, the binding signal is 1.44 enrichment R. Molecule B6 registered a binding signal of 2.82 enrichment R. Turning to B7, the binding signal came out at 0.958 enrichment R. In turn, B8 showed a binding signal of 1.01 enrichment R. For B9, the binding signal was determined as 0.956 enrichment R. B10: the binding signal was 0.756 enrichment R. In turn, B11 yielded a binding signal of 2.16 enrichment R. On to B12, for which the binding signal amounted to 1.99 enrichment R. In the case of B13, the binding signal worked out at 0.714 enrichment R. The molecule B14 registered a binding signal of 0.713 enrichment R.
